Results reported in PubChem BioAssay AID485281 (National Center for Advancing Translational Sciences (NCATS), 2010).
In all, about 350,000 compounds went through this assay and about 260 (0.074%) were called active. Inconclusive means that the source gave no clear call. Such entries were picked first, then a sample of the others. Calls follow the shape of the dose curve; as a rule, active = well fitted inhibition curve with a large enough effect; inconclusive = small, poorly fitted or top-dose-only effect; inactive = no such curve, though single readings can be large or run the other way. Where the call is inconclusive, the potency comes from a doubtful curve fit.

Each molecule was assayed against Ferritin light chain (Equus caballus) (UniProt P02791) (assay: qHTS Assay for Identification of Novel General Anesthetics). Conditions: apoferritin/1-aminoanthracene competitive binding, fluorescence; activity change, negative = displacement: at 77.5 µM (top of the series).
Sequence of UniProt P02791 (P02791 whole entry, looked up): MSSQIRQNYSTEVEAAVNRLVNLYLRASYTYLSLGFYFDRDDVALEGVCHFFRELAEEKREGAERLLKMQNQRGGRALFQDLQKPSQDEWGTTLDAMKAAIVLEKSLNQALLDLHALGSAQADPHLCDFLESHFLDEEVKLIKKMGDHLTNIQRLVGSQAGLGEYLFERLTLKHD
Method in brief: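 10 uM apoferritin + 50% sat. 1-AMA, PBS; cpd 10 min RT; Ex380/Em535 endpoint; normalized to free probe vs complex; 4-param Hill fit; propofol titration as pos. ctrl.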
% is scaled to controls: 0 for no effect and ±100 for the full control effect; potency is read from the fitted curve at half-maximal effect; tags tell the direction and shape of the fitted curve.
Also: nearly all actives have a fitted effect of over 20% in size.

For `COc1ccc(OC)c(/C=N/NC(=O)CCc2ccc(O)c(O)c2)c1`, which “activity change, negative = displacement” value is on record?
Its value is inactive: 43.5%.

How did the Potency turn out when `C#CCNC(=O)C1=C[C@H](C2CCCCC2)C[C@H](OCc2ccc(CO)cc2)O1` was run?
Its Potency is inconclusive: 25.1 µM [inhibitor, partial curve].

`COc1ccc(-n2c(=O)c3ccc(C(=O)NCc4ccc(C)cc4)cc3n(CC(=O)Nc3ccc(C)cc3)c2=O)cc1` was tested. Which Potency did it give?
Its Potency is inconclusive: 8.91 µM [inhibitor, partial curve].

For `O=C(c1ccccc1F)N1CCN(S(=O)(=O)c2ccc3c(c2)OCCO3)CC1`, which “activity change, negative = displacement” value is on record?
The value was inactive: -14.1%.

How did the Potency turn out when `CCN1C(=S)SC(=O)C1=C1C=C(C)N(Cc2ccco2)C(C)=C1` was run?
The Potency was inconclusive: 25.1 µM [inhibitor, partial curve].

For `Cc1ccccc1OCc1nc(-c2ccc(Br)o2)no1`, which Potency is on record?
Its Potency is inconclusive: 35.5 µM [inhibitor, partial curve].

With `O=c1[nH]c2cc([N+](=O)[O-])c([N+](=O)[O-])cc2[nH]c1=O` as the molecule, how does the “activity change, negative = displacement” value read?
Its value is inactive: -11.7%.

`CCOc1cc(/C=C2/C(=O)ON=C2C)ccc1OCc1ccccc1` was tested. Which “activity change, negative = displacement” value did it give?
The value was inactive: -4.49%.

Which Potency does the source give for `CCOc1ccc(S(=O)(=O)NC(C)(C)C)cc1-c1nc2c(C(C)(C)C)nn(C)c2c(=O)[nH]1` here?
Its Potency is inconclusive: 15.8 µM [inhibitor, partial curve].

Which “activity change, negative = displacement” value does the source give for `O=S(=O)(c1ccc(Br)cc1)c1nnn2c1nc(NCc1cccs1)c1sccc12` here?
Its value is inactive: 3.17%.

`CCOC(=O)c1cc(S(=O)(=O)N2CCN(Cc3ccccc3)CC2)cn1C` was tested. Which Potency did it give?
Its Potency is inconclusive: 28.2 µM [inhibitor, partial curve].

With `O=S(=O)(c1cccc2cccnc12)N1CCc2ccccc21` as the molecule, how does the Potency read?
Its Potency is inconclusive: 44.7 µM [inhibitor, single point].

For `Cc1ccc(C)c(NC(=O)N2CCCCCC2)c1`, which Potency is on record?
Its Potency is inconclusive: 25.1 µM [inhibitor, partial curve].

With `Clc1ccc(OCc2nn3c(-c4ccco4)nnc3s2)cc1` as the molecule, how does the Potency read?
The Potency was inconclusive: 39.8 µM [inhibitor, partial curve].

Which Potency does the source give for `O=C(O)CC(Cc1ccc(Br)cc1)C(=O)Nc1ccccc1` (centres undefined) here?
Its Potency is inconclusive: 12.6 µM [inhibitor, partial curve, poor fit].

`COc1ccccc1NC(=O)/C(C#N)=C/C=C/c1ccco1` was tested. Which “activity change, negative = displacement” value did it give?
Its value is inactive: -20.4%.

Which “activity change, negative = displacement” value does the source give for `COC(=O)C1=NN(c2ccc(OC)cc2)C2C(=O)N(c3ccccc3OC)C(=O)C12` (centres undefined) here?
The value was inactive: -7.1%.

With `CCn1c(NCc2cccc(Cl)c2)nc2ccccc21` as the molecule, how does the Potency read?
Its Potency is inconclusive: 20 µM [inhibitor, partial curve].

Which Potency does the source give for `C(=C\c1ccccc1)/CSc1ccccn1` here?
Its Potency is inconclusive: 31.6 µM [inhibitor, partial curve].

For `Cc1ccc(NC(=O)CCC(=O)c2cccs2)cc1`, which Potency is on record?
The Potency was inconclusive: 28.2 µM [inhibitor, partial curve].

How did the Potency turn out when `CN1C(=O)/C(=C2/C=Cc3ccccc3N2CCCS(=O)(=O)O)SC1=S` was run?
The Potency was inconclusive: 39.8 µM [inhibitor, single point].

With `Cc1ccc(-c2nn(-c3ccccc3)cc2C2SCC(=O)N2Cc2ccccc2)o1` (centres undefined) as the molecule, how does the “activity change, negative = displacement” value read?
The value was inactive: -1.8%.

`Cc1ncc(CO)c2c1Oc1nc(-c3ccccc3)nc(SCC(=O)N(C)c3ccccc3)c1C2` was tested. Which Potency did it give?
Its Potency is inconclusive: 15.8 µM [inhibitor, partial curve].

With `Cc1ccc(-n2c3c(cc(C(=O)NCc4ccco4)c2=O)C(=O)CC(C)(C)C3)cc1` as the molecule, how does the Potency read?
Its Potency is inconclusive: 35.5 µM [inhibitor, partial curve].

With `COc1ccc(OCc2cc(C(=O)N3CCCC(OC)C3)no2)c2ccccc12` (centres undefined) as the molecule, how does the Potency read?
Its Potency is inconclusive: 28.2 µM [inhibitor, partial curve].

How did the Potency turn out when `COc1ccc(-c2cc(C(=O)Oc3ccc(C)c(C)c3)c3ccccc3n2)cc1` was run?
The Potency was inconclusive: 11.2 µM [inhibitor, partial curve].

How did the “activity change, negative = displacement” value turn out when `O=C(N/N=C/c1ccccc1O)C1CC(=O)N(c2ccc(Cl)cc2)C1` (centres undefined) was run?
Its value is inactive: -13.7%.

For `Cc1noc2ncnc(NCc3cccc(Cl)c3)c12`, which “activity change, negative = displacement” value is on record?
Its value is inactive: -3.93%.

For `Cc1ccc(NC(=O)CNc2ccc(OC(C)C)cc2)cc1`, which Potency is on record?
Its Potency is inconclusive: 22.4 µM [inhibitor, partial curve].

Which “activity change, negative = displacement” value does the source give for `COc1ccccc1N1C(=O)CC(N(O)c2ccccc2)C1=O` (centres undefined) here?
Its value is inactive: -3.29%.

`O=C(Nc1ccccc1F)c1ccc(-c2cccc([N+](=O)[O-])c2)o1` was tested. Which Potency did it give?
Its Potency is inconclusive: 31.6 µM [inhibitor, partial curve].

With `Cc1nc(SCC(=O)c2cccs2)c2oc3ccccc3c2n1` as the molecule, how does the Potency read?
Its Potency is inconclusive: 35.5 µM [inhibitor, single point].

Which “activity change, negative = displacement” value does the source give for `COc1ccc(N=Cc2c(O)n(-c3cccc(C)n3)c(=O)c3ccccc23)cc1` here?
Its value is inactive: -10.3%.

With `COc1ccc(Cl)c2c1[nH]c1nc(SCc3ccccn3)nnc12` as the molecule, how does the Potency read?
Its Potency is inconclusive: 12.6 µM [inhibitor, partial curve].

With `Cc1c(C(=O)NCCCN2CCOCC2)sc2nc(-c3ccc(F)cc3)cn12` as the molecule, how does the “activity change, negative = displacement” value read?
The value was inactive: 5.87%.

`CS(=O)(=O)c1sc(C(=O)NC(=S)Nc2ccc(OC(F)(F)F)cc2)c2c1C=CCC2` was tested. Which Potency did it give?
Its Potency is inconclusive: 50.1 µM [inhibitor, single point].

Which Potency does the source give for `CCc1ccc(NC(=O)CSc2nc(=O)n(Cc3ccco3)c3c2CCC3)cc1` here?
The Potency was inconclusive: 12.6 µM [inhibitor, partial curve].

Which “activity change, negative = displacement” value does the source give for `Cn1c(=O)[nH]c(=O)c2c1nc(SCCN1CCCCC1)n2Cc1ccccc1` here?
Its value is inactive: -3.26%.

For `COCCCNC(=S)Nc1cccc2ncccc12`, which “activity change, negative = displacement” value is on record?
The value was inactive: -8.21%.

How did the Potency turn out when `COc1cc(C=O)ccc1OC(=O)c1ccc(C(C)C)cc1` was run?
The Potency was inconclusive: 17.8 µM [inhibitor, partial curve].

With `COc1ccc(C(=O)COC(=O)CNC(=O)c2cccc(OC(F)F)c2)cc1` as the molecule, how does the Potency read?
Its Potency is inconclusive: 14.1 µM [inhibitor, partial curve].

With `Cc1cccc2c1NC(=O)/C2=C\C(=O)c1cccs1` as the molecule, how does the Potency read?
The Potency was inconclusive: 39.8 µM [inhibitor, partial curve].

With `CCc1n[nH]c(=S)n1/N=C/c1ccc2c(c1)OCO2` as the molecule, how does the Potency read?
The Potency was inconclusive: 28.2 µM [inhibitor, partial curve].

Which Potency does the source give for `CSc1ccccc1OCc1cc(C(=O)N2CCc3[nH]cnc3C2c2ccccn2)no1` (centres undefined) here?
Its Potency is inconclusive: 39.8 µM [inhibitor, single point].

How did the Potency turn out when `Nc1ccc2nc(SCc3ccccc3F)sc2c1` was run?
Its Potency is inconclusive: 28.2 µM [inhibitor, partial curve].

Which Potency does the source give for `O=S(=O)(O)c1nc2ccccc2n1Cc1ccc(Cl)cc1Cl` here?
Its Potency is inconclusive: 44.7 µM [inhibitor, single point].

How did the Potency turn out when `COc1ccc(Cn2ccc3nc(C)c(C(=O)Nc4ccc(C)c(F)c4)cc3c2=O)cc1` was run?
The Potency was inconclusive: 35.5 µM [inhibitor, single point].

With `COc1ccc(/C=N/NS(=O)(=O)c2ccc(F)cc2)cc1COc1cc(F)ccc1[N+](=O)[O-]` as the molecule, how does the Potency read?
The Potency was inconclusive: 2.24 µM [inhibitor, full curve].

How did the Potency turn out when `COc1ccc(-c2ccc(NS(=O)(=O)c3cccc([N+](=O)[O-])c3)cc2)nn1` was run?
Its Potency is inconclusive: 35.5 µM [inhibitor, partial curve].

How did the “activity change, negative = displacement” value turn out when `Cc1cc(NC(=O)c2cc(C)on2)no1` was run?
Its value is inactive: 3.65%.

For `COc1ccc(CCNC(=O)C2CC(c3ccc([N+](=O)[O-])cc3)=NO2)cc1` (centres undefined), which Potency is on record?
Its Potency is inconclusive: 31.6 µM [inhibitor, partial curve].

For `Cc1cc(C(=O)NC(C)c2ccc3c(c2)OCO3)cs1` (centres undefined), which “activity change, negative = displacement” value is on record?
The value was inactive: -21.3%.

Which Potency does the source give for `COc1ccc([N+](=O)[O-])cc1NCc1ccccc1C` here?
The Potency was inconclusive: 35.5 µM [inhibitor, partial curve].

For `CCOC(=O)c1ccc(NC(=O)Oc2cc(C)c(Cl)cc2C(C)C)cc1`, which Potency is on record?
The Potency was inconclusive: 50.1 µM [inhibitor, single point].

How did the “activity change, negative = displacement” value turn out when `Cc1cccc(C(=O)Nc2nc(-c3ccc(Br)cc3)ns2)c1` was run?
Its value is inactive: -9.84%.

`COc1ccc(/C=C2\SC(=O)N(CCNC(=O)C3CC4C=CC3C4)C2=O)cc1` (centres undefined) was tested. Which Potency did it give?
The Potency was inconclusive: 28.2 µM [inhibitor, partial curve].

`O=C(C/C=N/OCc1ccccc1F)c1cnc(-c2ccc(Cl)cc2)s1` was tested. Which Potency did it give?
The Potency was inconclusive: 50.1 µM [inhibitor, single point].

`CCc1ccc(NC(=O)CSc2nc3ccccc3c(=O)n2CCCN2CCC(C)CC2)cc1` was tested. Which “activity change, negative = displacement” value did it give?
Its value is inactive: -7.66%.

`Cc1cc2oc(C(=O)N(Cc3ccccc3)C3CCS(=O)(=O)C3)cc(=O)c2cc1Cl` (centres undefined) was tested. Which Potency did it give?
Its Potency is inconclusive: 44.7 µM [inhibitor, partial curve].

`Cc1cc(C)c2c(CN3CCN(C/C=C/c4ccccc4)CC3)cc(=O)oc2c1` was tested. Which Potency did it give?
Its Potency is inconclusive: 5.62 µM [inhibitor, full curve].

`Cc1ccc(NC(=O)CSc2nc3c(c(=O)[nH]2)CCC3)cc1C` was tested. Which Potency did it give?
Its Potency is inconclusive: 35.5 µM [inhibitor, partial curve].

`O=C(CSc1nnc(C2CCCCC2)o1)Nc1ccccc1Cl` was tested. Which Potency did it give?
Its Potency is inconclusive: 25.1 µM [inhibitor, single point].

For `CN1/C(=C\C(=O)c2ccco2)c2ccccc2CC1(C)C`, which Potency is on record?
Its Potency is inconclusive: 12.6 µM [inhibitor, partial curve].

`CC(C)C(=O)Nc1cccc(NC(=S)NC(=O)c2ccccc2Cl)c1` was tested. Which Potency did it give?
Its Potency is inconclusive: 28.2 µM [inhibitor, partial curve].

With `O=C(C1=C(O)C(=O)N(Cc2ccco2)C1c1ccccc1)c1cccs1` (centres undefined) as the molecule, how does the Potency read?
Its Potency is inconclusive: 31.6 µM [inhibitor, single point].

Which Potency does the source give for `CCNc1nc(C23CC4CC(CC(C4)C2)C3)cs1` here?
Its Potency is inconclusive: 10 µM [inhibitor, partial curve].

`CC[n+]1cc(-c2ccccc2)nc(N2CCOCC2)n1` was tested. Which “activity change, negative = displacement” value did it give?
The value was inactive: -15.5%.

Which Potency does the source give for `CCSc1nc2c(c(=O)[nH]c(=O)n2C)n1CC(O)COc1ccc(Cl)cc1` (centres undefined) here?
Its Potency is inconclusive: 10 µM [inhibitor, full curve, poor fit].

How did the “activity change, negative = displacement” value turn out when `COc1ccc(N2CCN(c3cc(C)c4ccc(O)cc4n3)CC2)cc1` was run?
The value was inactive: 54.2%.
